Laboratory results from PMC4761948.
Results are given in words; binding and its absence hold for the method and conditions named. For some assays here: Binding seen in cells or lysates may run through a third protein. Some entries that bind do so weakly or less than the wild type. For some assays here: Where a sequence is shown, tags or fusion partners need not be part of it. Values belong to the substance of their own block, whether it stands above or below them.

Protein sequences, listed by entry. Tags and fused reporters are not part of them.
UniProt P23771: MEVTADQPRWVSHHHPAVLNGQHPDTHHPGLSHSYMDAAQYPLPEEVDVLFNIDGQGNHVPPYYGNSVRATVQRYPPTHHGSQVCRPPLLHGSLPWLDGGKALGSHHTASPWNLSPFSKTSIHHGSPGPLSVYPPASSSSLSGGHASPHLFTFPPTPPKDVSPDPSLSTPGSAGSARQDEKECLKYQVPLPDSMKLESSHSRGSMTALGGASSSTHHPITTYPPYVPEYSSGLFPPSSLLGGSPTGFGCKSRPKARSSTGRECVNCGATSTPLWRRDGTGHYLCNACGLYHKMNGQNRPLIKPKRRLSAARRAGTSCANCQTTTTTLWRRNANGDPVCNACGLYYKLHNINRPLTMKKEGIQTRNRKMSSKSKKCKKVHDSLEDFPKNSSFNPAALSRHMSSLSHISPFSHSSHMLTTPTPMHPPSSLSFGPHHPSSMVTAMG

Key:
HA-GCM1 (human) = target: T1, HA-GCM1 (human) (UniProt Q9NP62); assay: co-IP; 293T cells cotransfected with the two expression plasmids (2.5 μg each), harvested 48 h after transfection in lysis buffer (50 mM Tris-HCl pH 8.0, 150 mM NaCl, 2 mM EDTA, 10% glycerol, 0.5% NP-40, 1 mM DTT); coimmunoprecipitation with FLAG and HA Abs (reciprocal in Fig. 3B, C)
T1 sequence: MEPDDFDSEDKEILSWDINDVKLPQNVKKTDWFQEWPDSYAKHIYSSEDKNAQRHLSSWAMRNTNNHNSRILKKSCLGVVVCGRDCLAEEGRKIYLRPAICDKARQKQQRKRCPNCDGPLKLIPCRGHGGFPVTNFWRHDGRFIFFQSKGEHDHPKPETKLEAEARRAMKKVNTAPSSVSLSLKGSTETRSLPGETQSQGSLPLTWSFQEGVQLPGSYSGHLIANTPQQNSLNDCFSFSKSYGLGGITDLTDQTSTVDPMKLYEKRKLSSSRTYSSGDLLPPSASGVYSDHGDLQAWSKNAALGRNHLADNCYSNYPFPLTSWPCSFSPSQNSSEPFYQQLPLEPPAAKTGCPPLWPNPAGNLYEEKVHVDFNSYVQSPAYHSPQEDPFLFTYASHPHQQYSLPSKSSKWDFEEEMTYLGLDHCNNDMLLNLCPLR

HA-tagged GCM2 (human) = target: T2, HA-tagged GCM2 (human) (UniProt O75603); assay: as above
T2 sequence: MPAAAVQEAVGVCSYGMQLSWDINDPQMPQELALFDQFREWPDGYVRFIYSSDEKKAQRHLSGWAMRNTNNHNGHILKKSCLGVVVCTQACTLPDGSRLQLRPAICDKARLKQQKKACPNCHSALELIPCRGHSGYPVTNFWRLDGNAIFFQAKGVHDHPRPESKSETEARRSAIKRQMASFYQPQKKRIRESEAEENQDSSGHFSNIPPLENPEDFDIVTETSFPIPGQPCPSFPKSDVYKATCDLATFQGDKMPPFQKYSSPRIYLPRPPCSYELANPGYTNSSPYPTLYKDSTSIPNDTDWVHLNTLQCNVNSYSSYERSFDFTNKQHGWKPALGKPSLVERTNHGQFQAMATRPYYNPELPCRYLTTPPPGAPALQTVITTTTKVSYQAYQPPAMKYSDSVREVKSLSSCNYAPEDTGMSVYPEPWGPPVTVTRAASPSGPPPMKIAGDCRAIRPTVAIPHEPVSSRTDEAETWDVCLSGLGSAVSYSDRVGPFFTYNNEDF

GST-GCM1 (human) = GST-GCM1 (human) (UniProt Q9NP62); assay: pull-down; about 45 ng immunopurified GATA3-FLAG incubated with 0.5 μg GST or 1.5 μg GST-GCM1 pre-bound to glutathione-conjugated agarose beads, lysis buffer, 4 °C, 3 h; immunoblot with FLAG Ab; both purified
[1] = target: T3, Gal4-GCM1-FLAG, full-length GCM1 (human) (UniProt Q9NP62); assay: co-IP; 293T cells cotransfected with the two expression plasmids (2.5 μg each), harvested 48 h after transfection in lysis buffer (50 mM Tris-HCl pH 8.0, 150 mM NaCl, 2 mM EDTA, 10% glycerol, 0.5% NP-40, 1 mM DTT); coimmunoprecipitation with FLAG and HA Abs (reciprocal in Fig. 3B, C)
T3 sequence: T1 sequence

[2] = target: T4, Gal4-GCM1-FLAG, N-terminal domain (amino acids 1-167) of GCM1 (human) (UniProt Q9NP62); assay: as above
T4 sequence: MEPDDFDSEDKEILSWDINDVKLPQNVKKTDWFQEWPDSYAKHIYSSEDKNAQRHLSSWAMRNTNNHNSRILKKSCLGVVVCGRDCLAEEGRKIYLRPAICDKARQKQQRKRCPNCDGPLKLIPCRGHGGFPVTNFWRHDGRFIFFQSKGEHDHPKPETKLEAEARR

[3] = target: T5, Gal4-GCM1-FLAG, amino acids 167-349 of GCM1 (TAD1) (human) (UniProt Q9NP62); assay: as above
T5 sequence: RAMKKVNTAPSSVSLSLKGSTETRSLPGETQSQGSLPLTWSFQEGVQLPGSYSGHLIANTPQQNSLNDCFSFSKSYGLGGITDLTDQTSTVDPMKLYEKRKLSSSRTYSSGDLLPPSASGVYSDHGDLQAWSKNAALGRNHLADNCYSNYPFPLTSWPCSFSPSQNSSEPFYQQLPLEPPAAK

[4] = target: T6, endogenous GCM1 (human (endogenous in BeWo, JEG-3 and primary human trophoblast cells)) (UniProt Q9NP62); assay: co-IP; endogenous proteins in BeWo, JEG-3 and primary human trophoblast cells; rabbit anti-GCM1 Ab (or rabbit normal IgG) for immunoprecipitation, mouse anti-GATA3 Ab for immunoblotting
T6 sequence: T1 sequence

- binding (HA-GCM1 (human)): binds
- binding (HA-tagged GCM2 (human)): no binding
- binding (GST-GCM1 (human)): binds
Substance: GATA3-FLAG (from UniProt P23771 1-443)

- binding (HA-GCM1 (human)): binds
Substance: Gal4-GATA3-FLAG, full-length GATA3 (from UniProt P23771 1-443)

- binding [1]: binds
- binding [2]: binds
- binding [3]: binds
Substance: HA-GATA3 (from UniProt P23771 1-443)

- binding [4]: binds
Substance: endogenous GATA3 (from UniProt P23771 1-443)
